# The supplement of paper PMC8728848
# The other results are listed elsewhere or left out.
# Key:
# Test in all cases: glycan array binding signal (z-score within array); higher = stronger binding
# Details in all cases: glycan notation: IUPAC condensed, linker removed
# [1] = biological target: GlcNAc(a1-6)Gal(b1-4)GlcNAc
# How it was run: (§1)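 The Consortium for Functional Glycomics database supplied 3228 glycan arrays, of which those lacking an available protein sequence were dropped. The binding signal, a within-array Z-score, was averaged across arrays of the same protein sequence and across linkers. Negative scores can be read as non-binding.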
# [2] = biological target: GlcNAc(b1-2)Gal(b1-3)GalNAc
# How it was run: as §1
# [3] = biological target: GlcNAc(b1-2)Man(a1-3)[GlcNAc(b1-2)Man(a1-6)]Man(b1-4)GlcNAc(b1-4)GlcNAc
# How it was run: as §1
# [4] = biological target: GlcNAc(b1-2)Man(a1-3)[GlcNAc(b1-2)Man(a1-6)]Man(b1-4)GlcNAc(b1-4)[Fuc(a1-6)]GlcNAc
# How it was run: as §1
# [5] = biological target: GlcNAc(b1-3)Gal
# How it was run: as §1
# [6] = biological target: GlcNAc(b1-3)Gal(b1-3)GalNAc
# How it was run: as §1
# [7] = biological target: GlcNAc(b1-3)Gal(b1-4)Glc
# How it was run: as §1
# [8] = biological target: GlcNAc(b1-3)Gal(b1-4)GlcNAc
# How it was run: as §1
# [9] = biological target: GlcNAc(b1-3)Gal(b1-4)GlcNAc(b1-3)Gal(b1-4)GlcNAc
# How it was run: as §1
# [10] = biological target: GlcNAc(b1-3)GalNAc
# How it was run: as §1
# [11] = biological target: GlcNAc(b1-3)Man
# How it was run: as §1
# [12] = biological target: GlcNAc(b1-3)[GlcNAc(b1-4)][GlcNAc(b1-6)]GlcNAc
# How it was run: as §1
# [13] = biological target: GlcNAc(b1-3)[GlcNAc(b1-6)]Gal(b1-4)GlcNAc
# How it was run: as §1
# [14] = biological target: GlcNAc(b1-3)[GlcNAc(b1-6)]GalNAc
# How it was run: as §1
# [15] = biological target: GlcNAc(b1-4)Gal(b1-4)GlcNAc
# How it was run: as §1
# [16] = biological target: GlcNAc(b1-4)GlcNAc
# How it was run: as §1
# [17] = biological target: GlcNAc(b1-4)GlcNAc(b1-4)GlcNAc
# How it was run: as §1
# [18] = biological target: GlcNAc(b1-4)GlcNAc(b1-4)GlcNAc(b1-4)GlcNAc(b1-4)GlcNAc
# How it was run: as §1
# [19] = biological target: GlcNAc(b1-4)GlcNAc(b1-4)GlcNAc(b1-4)GlcNAc(b1-4)GlcNAc(b1-4)GlcNAc
# How it was run: as §1
# [20] = biological target: GlcNAc(b1-4)[GlcNAc(b1-6)]GalNAc
# How it was run: as §1
# [21] = biological target: GlcNAc(b1-6)Gal(b1-4)GlcNAc
# How it was run: as §1
# [22] = biological target: GlcNAc(b1-6)GalNAc
# How it was run: as §1
# [23] = biological target: GlcNAc3Prop(b1-4)GlcNAc
# How it was run: as §1
# [24] = biological target: GlcNAc6S(b1-3)Gal(b1-4)GlcNAc
# How it was run: as §1
# [25] = biological target: Kdn(a2-3)Gal(b1-3)GalNAc
# How it was run: as §1
# [26] = biological target: Kdn(a2-3)Gal(b1-3)GlcNAc
# How it was run: as §1
# [27] = biological target: Kdn(a2-3)Gal(b1-4)Glc
# How it was run: as §1
# [28] = biological target: Kdn(a2-3)Gal(b1-4)GlcNAc
# How it was run: as §1
# [29] = biological target: Kdn(a2-3)Gal(b1-4)[Fuc(a1-3)]GlcNAc
# How it was run: as §1
# [30] = biological target: Kdn(a2-6)Gal(b1-4)GlcNAc
# How it was run: as §1
# [31] = biological target: Man(a1-2)Man(a1-2)Man(a1-3)Man
# How it was run: as §1
# [32] = biological target: Man(a1-2)Man(a1-2)Man(a1-6)[Man(a1-3)]Man
# How it was run: as §1
# [33] = biological target: Man(a1-2)Man(a1-3)Man
# How it was run: as §1
# [34] = biological target: Man(a1-2)Man(a1-3)[Man(a1-2)Man(a1-6)]Man
# How it was run: as §1
# [35] = biological target: Man(a1-2)Man(a1-3)[Man(a1-2)Man(a1-6)]Man(a1-6)[Man(a1-2)Man(a1-2)Man(a1-3)]Man
# How it was run: as §1
# [36] = biological target: Man(a1-2)Man(a1-3)[Man(a1-2)Man(a1-6)]Man(a1-6)[Man(a1-2)Man(a1-2)Man(a1-3)]Man(b1-4)GlcNAc(b1-4)GlcNAc
# How it was run: as §1
# [37] = biological target: Man(a1-2)Man(a1-3)[Man(a1-6)]Man(a1-6)[Man(a1-2)Man(a1-3)]Man(b1-4)GlcNAc(b1-4)GlcNAc
# How it was run: as §1
# [38] = biological target: Man(a1-2)Man(a1-6)[Man(a1-3)]Man(a1-6)[Man(a1-2)Man(a1-2)Man(a1-3)]Man
# How it was run: as §1
# [39] = biological target: Man(a1-2)Man(a1-6)[Man(a1-3)]Man(a1-6)[Man(a1-2)Man(a1-2)Man(a1-3)]Man(b1-4)GlcNAc(b1-4)GlcNAc
# How it was run: as §1
# [40] = biological target: Man(a1-3)[Man(a1-6)]Man
# How it was run: as §1
# [41] = biological target: Man(a1-3)[Man(a1-6)]Man(a1-6)[Man(a1-2)Man(a1-3)]Man(b1-4)GlcNAc(b1-4)GlcNAc
# How it was run: as §1
# [42] = biological target: Man(a1-3)[Man(a1-6)]Man(a1-6)[Man(a1-3)]Man
# How it was run: as §1
# [43] = biological target: Man(a1-3)[Man(a1-6)]Man(a1-6)[Man(a1-3)]Man(b1-4)GlcNAc(b1-4)GlcNAc
# How it was run: as §1
# [44] = biological target: Man(a1-3)[Man(a1-6)]Man(b1-4)GlcNAc(b1-4)GlcNAc
# How it was run: as §1
# [45] = biological target: Man(a1-6)Man
# How it was run: as §1
binder,measurement,setting,value
"GALT1 615 (Arabidopsis thaliana), Q8L7F9 (protein) DPMRGSHHHHHHGMASMTGGQQMGRDLYDDDDKSRLQKPYITAAASVVVTPNTTLPMEWLRITLPDFMKEARNTQEAISGDDIAVVSGLFVEQNVSKEEREPLLTWNRLESLVDNAQSLVNGVDAIKEAGIVWESLVSAVEAKKLVDVNENQTRKGKEELCPQFLSKMNATEADGSSLKLQIPCGLTQGSSITVIGIPDGLVGSFRIDLTGQPLPGEPDPPIIVHYNVRLLGDKSTEDPVIVQNSWTASQDWGAEERCPKFDPDMNKKVDDLDECNKMVGGEINRTSSTSLQSNTSRGVPVAREASKHEKYFPFKQGFLSVATLRVGTEGMQMTVDGKHITSFAFRDTLEPWLVSEIRITGDFRLISILA",glycan array binding signal (z-score),[1],-0.495
same,glycan array binding signal (z-score),[2],0.019
same,glycan array binding signal (z-score),[3],-0.109
same,glycan array binding signal (z-score),[4],6.45
same,glycan array binding signal (z-score),[5],-0.263
same,glycan array binding signal (z-score),[6],-0.088
same,glycan array binding signal (z-score),[7],-0.006
same,glycan array binding signal (z-score),[8],-0.353
same,glycan array binding signal (z-score),[9],-0.233
same,glycan array binding signal (z-score),[10],-0.386
same,glycan array binding signal (z-score),[11],-0.138
same,glycan array binding signal (z-score),[12],-0.255
same,glycan array binding signal (z-score),[13],-0.348
same,glycan array binding signal (z-score),[14],0.618
same,glycan array binding signal (z-score),[15],-0.272
same,glycan array binding signal (z-score),[16],-0.143
same,glycan array binding signal (z-score),[17],-0.144
same,glycan array binding signal (z-score),[18],-0.001
same,glycan array binding signal (z-score),[19],-0.301
same,glycan array binding signal (z-score),[20],-0.607
same,glycan array binding signal (z-score),[21],1.03
same,glycan array binding signal (z-score),[22],-0.21
same,glycan array binding signal (z-score),[23],-0.504
same,glycan array binding signal (z-score),[24],-0.341
same,glycan array binding signal (z-score),[25],-0.772
same,glycan array binding signal (z-score),[26],0.05
same,glycan array binding signal (z-score),[27],-0.219
same,glycan array binding signal (z-score),[28],0.051
same,glycan array binding signal (z-score),[29],-0.437
same,glycan array binding signal (z-score),[30],-0.101
same,glycan array binding signal (z-score),[31],1.68
same,glycan array binding signal (z-score),[32],-0.364
same,glycan array binding signal (z-score),[33],-0.222
same,glycan array binding signal (z-score),[34],-0.169
same,glycan array binding signal (z-score),[35],0.183
same,glycan array binding signal (z-score),[36],-0.104
same,glycan array binding signal (z-score),[37],-0.3
same,glycan array binding signal (z-score),[38],-0.249
same,glycan array binding signal (z-score),[39],-0.415
same,glycan array binding signal (z-score),[40],-0.369
same,glycan array binding signal (z-score),[41],0.283
same,glycan array binding signal (z-score),[42],-0.124
same,glycan array binding signal (z-score),[43],-0.163
same,glycan array binding signal (z-score),[44],0.039
same,glycan array binding signal (z-score),[45],-0.275
